Results as given in the supplement of paper PMC10369915.
Some of the results follow. No stated cut-off is given here; in the data, active = 3.2 or more and inactive = the rest. The signal is at background level for most entries.

Assays:
Experiment in all cases: enrichment score (SH2-bound / input frequency) (ratio); bacterial display of known human phosphotyrosine sites (pTyr-Var adds point mutants) read by sequencing; higher = stronger binding; tyrosines were phosphorylated by kinases first
Conditions in all cases: peptide library: Human pTyr
[1] = biological target: SHP2 C-SH2 domain E139D
[2] = biological target: SHP2 C-SH2 domain wild-type
[3] = biological target: SHP2 N-SH2 domain L43F
[4] = biological target: SHP2 N-SH2 domain T42A
[5] = biological target: SHP2 N-SH2 domain T52S
[6] = biological target: SHP2 N-SH2 domain wild-type

Measured: enrichment score
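Further: displayed peptides selected on beads carrying the immobilized SH2 domain, with library peptides lacking any tyrosine serving as negative controls.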

KFPGTKTYIDPETAE [EPHA7_HUMAN_608_YA]
inactive: [1] 0.923 | [2] 0.751 | [3] 0.828 | [4] 0.96 | [5] 1.01 | [6] 0.981

GGLSDGPYSNPYENS [EPOR_HUMAN_485]
inactive: [1] 0.511 | [2] 0.494 | [3] 0.786 | [4] 0.453 | [5] 0.618 | [6] 0.524

TAIDPETYEDPNRAV [EPHA7_HUMAN_614_YA]
inactive: [1] 0.766 | [2] 0.787 | [3] 0.76 | [4] 0.732 | [5] 0.944 | [6] 0.926

GGLSDGPYSNPAENS [EPOR_HUMAN_485_YA]
inactive: [1] 0.648 | [2] 0.487 | [3] 0.56 | [4] 0.504 | [5] 0.481 | [6] 0.552

TCSPQPEYVNQPDVR [ERBB2_HUMAN_1139]
inactive: [1] 1.09 | [2] 1.02 | [3] 0.939 | [4] 1.13 | [5] 1.3 | [6] 1.37

TYIDPDTYEDPSLAV [EPHA6_HUMAN_612]
inactive: [1] 1.02 | [2] 0.674 | [3] 0.881 | [4] 0.718 | [5] 0.915 | [6] 0.817

DPSPLQRYSEDPTVP [ERBB2_HUMAN_1112]
inactive: [1] 0.611 | [2] 0.548 | [3] 0.665 | [4] 0.721 | [5] 0.758 | [6] 0.741

SPLDSTFYRSLLEDD [ERBB2_HUMAN_1005]
inactive: [1] 0.961 | [2] 0.829 | [3] 0.929 | [4] 0.87 | [5] 0.943 | [6] 1.05

IAIDPFTYEDPNEAV [EPHB1_HUMAN_600_YA]
inactive: [1] 1.08 | [2] 0.894 | [3] 1.32 | [4] 1.01 | [5] 1.14 | [6] 1.74

EAIKMGRYTEIFMEN [EPHA5_HUMAN_982]
inactive: [1] 0.999 | [2] 1.2 | [3] 1.55 | [4] 2.4 | [5] 1.06 | [6] 0.984

DGPASNPYENSLIPA [EPOR_HUMAN_489_YA]
inactive: [1] 0.508 | [2] 0.457 | [3] 0.608 | [4] 0.49 | [5] 0.533 | [6] 0.619

VKKFKVEYHAGGSTQ [ADK_HUMAN_77]
inactive: [1] 1.59 | [2] 1.25 | [3] 1.53 | [4] 1.48 | [5] 1.89 | [6] 2.15

EDDPEAVYTTTGGKI [EPHA7_HUMAN_791]
inactive: [1] 1.05 | [2] 0.777 | [3] 0.741 | [4] 0.889 | [5] 0.949 | [6] 0.781

NFANFSAYPSEEDMI [EPS15_HUMAN_849]
inactive: [1] 0.878 | [2] 0.826 | [3] 0.915 | [4] 0.772 | [5] 0.77 | [6] 0.752

TYVDPFTYEDPNQAV [EPHA4_HUMAN_602]
inactive: [1] 0.605 | [2] 0.609 | [3] 0.537 | [4] 0.694 | [5] 0.828 | [6] 0.644

VYIDPFTYEDPNEAV [EPHB3_HUMAN_614]
inactive: [1] 1.07 | [2] 0.929 | [3] 1.15 | [4] 1.27 | [5] 1 | [6] 0.9

DLVDAEEYLVPQQGF [ERBB2_HUMAN_1023]
inactive: [1] 0.802 | [2] 0.699 | [3] 0.684 | [4] 0.899 | [5] 0.805 | [6] 0.728

FYAEPHTYEEPGRAG [EPHA8_HUMAN_616]
inactive: [1] 0.52 | [2] 0.62 | [3] 0.769 | [4] 0.452 | [5] 0.466 | [6] 0.411
